Test results reported in the antibiotic and cytotoxicity screens of Wong et al. (2023).
The other results are listed elsewhere or left out.

Columns and labels:
HSkMC = human skeletal muscle cells; experiment: cytotoxicity call (relative viability < 0.9); settings: 10 µM
HepG2 = experiment: cytotoxicity call (relative viability < 0.9); settings: 10 µM
S. aureus RN4220 = experiment: growth inhibition call (relative growth <= 0.2); settings: 50 µM

CN(C)CCCC[C@@H]1NC(=O)[C@@H]2C[C@H](C(=O)NCCCCCCNC(=O)CS)[C@H](c3ccc(O)cc3)N2C1=O
inactive: cytotoxicity call (HSkMC) | cytotoxicity call (HepG2) | growth inhibition call (S. aureus RN4220)

C[C@H]1CN([C@@H](C)CO)C(=O)c2cccc(NC(=O)c3ccc(-c4nccs4)cc3)c2O[C@H]1CN(C)Cc1ccc(C(=O)O)cc1
inactive: cytotoxicity call (HSkMC) | cytotoxicity call (HepG2) | growth inhibition call (S. aureus RN4220)

COc1ccc(CCN2C(=O)[C@@]3(Cc4ccccc42)c2ccccc2C(=O)N(Cc2ccccc2)[C@H]3c2ccc(COC(=O)NCCCCCC(=O)NO)cc2)cc1
inactive: cytotoxicity call (HSkMC) | cytotoxicity call (HepG2) | growth inhibition call (S. aureus RN4220)

CC(C)NC(=O)Nc1ccc2c(c1)C(=O)N([C@@H](C)CO)C[C@@H](C)[C@@H](CN(C)S(=O)(=O)c1cn(C)cn1)OCCCC[C@H](C)O2
inactive: cytotoxicity call (HSkMC) | cytotoxicity call (HepG2) | growth inhibition call (S. aureus RN4220)

O=C(C[C@@H]1CC[C@@H]2[C@H](COC[C@H](O)CN2C(=O)Nc2ccc(Cl)cc2)O1)NCCc1ccncc1
inactive: cytotoxicity call (HSkMC) | cytotoxicity call (HepG2) | growth inhibition call (S. aureus RN4220)

C[C@H]1CCCCO[C@H](CN(C)CC2CCCCC2)[C@@H](C)CN([C@@H](C)CO)C(=O)c2cc(NS(=O)(=O)c3cccs3)ccc2O1
inactive: cytotoxicity call (HSkMC) | cytotoxicity call (HepG2) | growth inhibition call (S. aureus RN4220)

CN(C)CC(=O)N1CC(=O)N2[C@H](CO)[C@@H](c3ccc(C#Cc4cccnc4)cc3)[C@@H]2C1
inactive: cytotoxicity call (HSkMC) | cytotoxicity call (HepG2) | growth inhibition call (S. aureus RN4220)

COc1ccc(NC(=O)N(C)C[C@H]2OCCCC[C@@H](C)Oc3ccc(NC(=O)c4ccccc4)cc3C(=O)N([C@H](C)CO)C[C@@H]2C)cc1
inactive: cytotoxicity call (HSkMC) | cytotoxicity call (HepG2) | growth inhibition call (S. aureus RN4220)

CO[C@H]1CN(C)C(=O)c2cc(NC(=O)C3CCOCC3)ccc2OC[C@H](C)N(Cc2cccnc2)C[C@H]1C
inactive: cytotoxicity call (HSkMC) | cytotoxicity call (HepG2) | growth inhibition call (S. aureus RN4220)
